# Experimental data as given in ChEMBL document CHEMBL4888484, “Replenishing the malaria drug discovery pipeline: Screening and hit evaluation of the MMV Hit Generation Library 1 (HGL1) against asexual blood stage Plasmodium falciparum ,using a nano luciferase reporter read-out” (2022).
# The whole screen tested about 150,000 compounds, of which about 540 (0.36%) showed an effect of 50% or more. The list shows a part of the results.
# Tested on: Plasmodium falciparum
# Assay: Primary screen in NF54 nanoGlo assay, in single point, at 2uM, 72h; a lower Z score goes with more inhibition
# Type: functional, Erythrocyte
# Conditions: timepoint 72 hour
SMILES,% Inhibition [%],Z score
CC(C)c1noc(N2CC3CC=CCC3C2)n1 (stereo unspecified),-18,1.56
CN(Cc1cnn(C)c1)C(=O)c1ccc2nc(-c3ccc(F)cc3)cn2c1,-9,1.28
CCNC(=O)CN(CC)C(=O)NCCCN(C)c1ccccc1,4,-0.82
Cc1[nH]c(=O)c(C#N)c(C)c1CCC(=O)N1CCCC2COCCC21 (stereo unspecified),-6,0.98
CCCNC(=O)N1CCC2(CC1)N[C@@H](Cc1ccccc1)C(=O)N2Cc1ccccc1,-6,1
Cc1ccccc1NC(=O)N1CCC[C@H]1c1nc2cc(-c3ccc(F)cc3)ccc2o1,-11,1.32
CN1C(=O)[C@@H]2CC[C@H]1CN(Cc1cc3c(cc1Cl)OCO3)C2,5,-0.6
C[C@H]1c2cccn2CCN1CC(=O)N1CCN(S(=O)(=O)c2ccc3ccccc3c2)CC1,-43,5.05
Cc1csc(CN(C[C@H]2CCCO2)C(=O)c2cc(O)cc(O)n2)n1,-8,1.59
COc1cc(OC)cc(-c2cc(-c3ccc(C)o3)nc(N)c2C#N)c1,-2,0.45
COCCn1cnc2cc(NC(=O)C3CCCCC3)cc(C(=O)N3CCN(C(C)C)CC3)c21,-13,1.87
COc1ccc(NC(=O)CCC(=O)NCc2ccco2)cc1,34,-4.43
CC[C@H](NCC(F)(F)F)c1nc(C)cs1,-10,1.49
CCN(CC)c1onc(-c2ccccc2)c1CN(CCN(C)C)C(=O)c1ccc(Cl)cc1,6,-0.8
Cc1nn(C)c(C)c1CC(=O)N1CCc2cccc(F)c21,2,-0.2
NCCOc1cccc(Br)c1,-30,2.72
Cc1nn(C)c(Cl)c1CN(C)C[C@H](C)N1CCOCC1,-1,0.12
O=C(Cn1cnnn1)N[C@@H]1COCC[C@@H]1Oc1cccc(F)c1,-8,1.23
Cc1nnc(NC(=O)Nc2ccccc2)nc1C,-4,0.56
CC(C)C[C@H](NC(=O)NC1CCCC1)C(=O)O,0,0
O=C(CC1CCCCC1)N1CC2CN(S(=O)(=O)c3cccc(F)c3)CC(C1)O2,-3,0.28
COc1cc(NC(=O)N2CCC(c3nc(=O)[nH][nH]3)CC2)ccc1F,4,-0.75

SMILES,% Inhibition [%],Z score
O[C@@H]1COCc2nc3ccccc3n2C1,-3,0.43
Cn1ncc2ccc(N3C(=O)c4ccccc4C3=O)cc21,-2,0.23
O=C(C[C@@H]1N=C(O)N(Cc2ccccc2)C1=O)Nc1n[nH]c(CCc2ccccc2)n1,17,-2.07
O=C(CCc1ccc(S(=O)(=O)N2CCCC2)cc1)NC1CCCC1,-1,0.08
O=C(CNC(=O)Cc1ccccc1)NCCC1=CCCCCC1,-7,1.17
CN(C)Cc1cc(CN(C)C)c(O)c(CCc2ccccc2)n1,7,-1.36
CN(C)CCN(Cc1ccsc1)C(=O)[C@@H]1CCC[C@H](O)C1,-14,2.65
N#C[C@@H]1COCCN1Cc1ccc2ccccc2n1,0,0.01
CC(C)=CCCNC(=O)N1CCO[C@H](c2nc(C)cs2)C1,-11,1.21
CO[C@H]1[C@H](NC(=O)c2ccsc2)c2ccccc2C12CCN(Cc1cccc(F)c1F)CC2,-6,0.79
CCCc1noc(CN(CCC#N)C2CCOCC2)n1,1,-0.13
Cc1cc(CNS(=O)(=O)c2c(C)noc2C)no1,-7,1.29
Cc1cccc(-c2ccc3nc(-c4ccc(F)cc4)c(CN4CCN(C(=O)c5cccs5)CC4)n3c2)c1,-11,2.12
CC(C)C(=O)N1C[C@@H]2CN(C(=O)COc3ccc(F)cc3)C[C@]2(CO)C1,-17,2.22
CC(=O)NC(C)C(=O)NC(Cc1ccc(F)cc1)C(C)C (stereo unspecified),7,-1.28
COc1ccc(-c2[nH]nc3nc(-c4ccc(C)cc4)cc(C(=O)NCc4ccc(F)cc4)c23)cc1,-3,0.26
CCN1CCCC[C@@H]1CNc1nc(OC)cc(OC)n1,4,-0.7
Cc1ccc(C2=NC3(CCN(Cc4ccccc4)CC3)N[C@H](c3cc(Cl)ccc3O)C2)cc1C,3,-0.65
CC(C)(C)c1nc(CN2CCNC(=O)C2)cs1,-3,0.52
CN(C(=O)Cn1ccc(=O)[nH]c1=O)[C@H]1CCCN(Cc2ccccc2)C1,5,-0.73
CC(C)S(=O)(=O)CCNC(=O)Nc1ccccc1C1CC1,4,-0.58
